PubChem BioAssay AID1347073 (National Center for Advancing Translational Sciences (NCATS), 2019)
The whole screen tested about 45,000 compounds, of which about 200 (0.44%) were called active. Roughly 7% stayed inconclusive and do not appear here. Calls come from the whole dose curve; as a rule, active = well fitted activation curve with a large enough effect; inconclusive = small, poorly fitted or top-dose-only effect; inactive = no such curve, though single readings can be large or run the other way. Some of the results follow.

Assay: qHTS of TDP-43 Inhibitors: NCGC Sytravon Library Screen; note: 0% is about no effect; nearly all actives have a fitted effect of over 55% in size
Settings: yeast TDP-43 toxicity rescue, BacTiter-Glo growth, 24 h; series mostly up to 46.1 µM; growth rescue (activation): at the top concentration
Method in brief: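 TDP-43-expressing yeast, pregrown in raffinose, seeded at OD600 0.02 in galactose medium with compound for 24 hr at 30 deg C. Growth read by BacTiter-Glo luminescence, so rescue of toxicity appears as activation.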

SMILES	growth rescue (activation)
CCCc1ncc(C(O)c2ccccc2OC)n1C (stereo not given)	inactive: -0.574%
Cc1nc2cc(NS(=O)(=O)c3cccc(F)c3)ccc2s1	inactive: 5.5%
CCOC(=O)C1=C(C)NC(C)=C(C(=O)OCC)C1C(=O)OCC(=O)NC1CCCCC1	inactive: -24%
COc1ccc(C(NC(=O)c2cc(OC)ccc2OC)c2ccccc2)cc1 (stereo not given)	inactive: 19.5%
CC(C)c1nnc(NC(=O)CCS(=O)(=O)Cc2ccccc2)s1	inactive: -14.6%
O=C(CN1CCOCC1)NCCNS(=O)(=O)c1ccccc1	inactive: 4.48%
Cc1cnc(C(=O)OCC(=O)Nc2ccc(C)c(S(=O)(=O)N3CCCCC3)c2)cn1	inactive: 3.75%
C[n+]1c2n(c3ccccc31)N=C(c1cc(C(C)(C)C)c(O)c(C(C)(C)C)c1)CS2	inactive: -12.1%
COc1ccc(N(CC(=O)NCc2ccccc2)C(=O)Cn2nnc(-c3ccccc3F)n2)cc1OC	inactive: 8.85%
Cc1ccccc1Nc1c(-c2cc(Br)ccc2F)nc2ccccn12	inactive: -9.01%
CCOC(=O)CCc1c(C)n[nH]c1C	inactive: 5.21%
CSc1cccc(NC(=O)CCCNC(=O)c2ccc(Cl)cc2)c1	inactive: 12.2%
COc1ccc(NC(=O)C2CC(=O)N/C(=N/N=C/c3ccco3)S2)cc1 (stereo not given)	inactive: -13.5%
Cc1c(Cl)cnc(NC(=O)COC(=O)c2ccc([N+](=O)[O-])s2)c1Cl	inactive: -93.1%
Cc1cc(C)c2c(CN3CC(C)OC(C)C3)cc(=O)oc2c1C (stereo not given)	inactive: 18.7%
CS(=O)(=O)c1ccc2nc(NC(=O)c3ccc(Cl)cc3)sc2c1	inactive: 5.48%
Cc1ccc(CS(=O)(=O)CCC(=O)NCc2ccccn2)cc1	inactive: -3.92%
CCCCc1ccc(S(=O)(=O)NCCCN2CCCC2=O)cc1	inactive: 20.1%
Cc1ccc(S(=O)(=O)CCC(=O)NNC(=O)CN(C)S(=O)(=O)c2ccc(C)cc2)cc1	inactive: -9.42%
CN(CC(=O)N1CCCCCC1)S(=O)(=O)c1ccc(F)cc1	inactive: -6.59%
CNc1ccccc1C(C)(C)c1cc(-c2cc(C)cc(C)c2)no1	inactive: 0.649%
CC(C)CN(C(=O)CSc1nnnn1-c1ccccc1)c1c(N)n(CC(C)C)c(=O)[nH]c1=O	inactive: -2.06%
O=c1cc(CN2CCN(c3ccc(F)cc3)CC2)nc2sccn12	inactive: 8.13%
O=c1cc(N2CCCC2)c(-c2ccccc2)n[nH]1	inactive: -12.1%
Cc1ccc(NC(=O)C(=O)NCCN2CCN(S(C)(=O)=O)CC2)cc1	inactive: -5.26%
COc1ccc(C(=O)CCC(=O)Nc2cc(Cl)c(O)c(Cl)c2)cc1	inactive: -10.1%
O=C(CN1CCC(NC(=O)Nc2ccccc2)CC1)Nc1ccc([N+](=O)[O-])cc1	inactive: 5.96%

SMILES	growth rescue (activation)
CCC(c1c(C)[nH]oc1=O)c1c(C)[nH]oc1=O	inactive: -6.4%
Cn1cc(C(=O)N/N=C/C2=C(N3CCOCC3)C(=C/c3ccc([N+](=O)[O-])cc3)/CC2)ccc1=O	inactive: 18.5%
O=c1cc(NCc2ccccc2)nc2n1CCCS2	inactive: 0.47%
NC(=O)CSc1nc2c(sc3ccccc32)c(=O)n1CCCC(=O)NCC1CCCO1 (stereo not given)	inactive: 11.2%
CCc1ccc(NC(=O)CN2C(=O)C(c3ccc(Cl)cc3)=NC23CCCCC3)cc1	inactive: 8.08%
O=C(O)CN1C(=O)/C(=C\c2cc(Br)ccc2OCc2ccccc2Cl)SC1=S	inactive: 12.8%
COCCNc1ccc(N2C(=O)C3CCCCC3C2=O)cc1[N+](=O)[O-] (stereo not given)	inactive: 0.864%
O=C(Nc1nc2ccccc2[nH]1)Nc1ccccc1F	inactive: 2.01%
O=C1/C(=C/c2ccc(O)c([N+](=O)[O-])c2)SC(=S)N1Cc1ccccc1	inactive: -0.614%
O=C(Nc1ccc2c(c1)OCO2)c1cc(C2CCCCN2C(=O)c2ccc3c(c2)CCO3)on1 (stereo not given)	inactive: 26.3%
O=C(CCCl)Nc1nnc(SCC(=O)NC2CCCC2)s1	inactive: -3.35%
Cc1ccsc1C(=O)N1CCC(CO)(Cc2ccccc2)CC1	inactive: 13.7%
C=CCn1c(SCc2nc3sc(C(=O)O)c(C)c3c(=O)[nH]2)nnc1-c1ccc(F)cc1	inactive: -2.05%
CCCn1ncc([C@@H]2C[C@H]3CN(Cc4cccc(Cl)c4)C(=O)[C@]34CCCN24)c1C	inactive: -9.37%
Cn1c(=O)c([N+](=O)[O-])c(-n2cnc3ccccc32)c2ccccc21	inactive: 10.5%
CSc1cccc(NC(=S)N(CCC(C)C)C2CCN(C(C)C)CC2)c1	inactive: 17.2%
CCC1CCCCN1C(=O)CSc1nnc(N)s1 (stereo not given)	inactive: -0.366%
CCOC(=O)C1CCCN(C(=O)c2cccc(S(=O)(=O)N3CCOCC3)c2)C1 (stereo not given)	inactive: 0.672%
CCc1ccc(-c2nc(C)c(CCO)c(=O)[nH]2)cc1	inactive: -4.76%
O=C1S/C(=C\c2ccccc2)C(=O)N1CC(O)Cn1c2ccccc2c2ccccc21 (stereo not given)	inactive: 10.8%
CCn1cc(C(=O)NCCC(=O)NCCO)c(=O)c2cc3c(cc21)OCO3	inactive: -5.63%
CC1CCN(C(=O)c2ccc([N+](=O)[O-])o2)CC1	inactive: 16%
COc1ccc(-c2csc(N(CCCN3CCOCC3)C(=O)CCl)n2)cc1	inactive: -1.94%
COc1cc(CNC(=O)Nc2nc(C(N)CCc3ccccc3)cs2)cc(OC)c1OC (stereo not given)	inactive: -3%
O=C(c1cc(COc2ccccc2)on1)N1CCCC(OCc2cccnc2)C1 (stereo not given)	inactive: 10.7%
COc1cc(OC)cc(C(=O)Nc2nnc(NC(=S)Nc3ccccc3)s2)c1	inactive: -2.53%
COc1ccc(/C=N/NC(=O)C(=O)N2CCCCCC2)cc1	inactive: -4.18%

SMILES	growth rescue (activation)
CCOc1ccc(/C(O)=C/C(=O)C(=O)Nc2ccc(S(=O)(=O)NC(C)=O)cc2)cc1	inactive: -41.4%
CC1CCC2(CC1)NC(=O)N(CC(=O)N1CCN(S(=O)(=O)c3ccccc3)CC1)C2=O (stereo not given)	inactive: 7.7%
CN(C)C(CNc1ncccn1)c1ccccc1 (stereo not given)	inactive: -9.96%
O=C(Nc1ccc(N2CCN(C(=O)c3ccco3)CC2)c(Cl)c1)c1cccnc1	inactive: 12.8%
O=C(O)c1ccc(C(=O)C(=O)c2ccccc2)cc1	inactive: -3.01%
CCOC(=O)/C(C#N)=C1/C(=O)N(Cc2ccccc2)c2ccccc21	inactive: -25.3%
COc1ccc(NC(=O)c2cc3c(=O)n4ccccc4nc3n2C)c(OC)c1	inactive: 8.21%
O=C1COc2cc(S(=O)(=O)NCc3ccco3)c(Cl)cc2N1	inactive: 19.5%
COc1ccc2c(c1)c1nc3ccccc3nc1n2Cc1ccc(OC)c(OC)c1	inactive: 25.6%
O=C(/C=C/c1ccccc1)NNc1ccc(Cl)cc1	inactive: 4.76%
CSc1nsc(SCC(=O)Nc2ccc(C(N)=O)cc2)n1	inactive: -1.5%
Cc1ccc(C(=O)NNC(=O)c2cccc(C)c2)cc1	inactive: 5.76%
CCN(CC)S(=O)(=O)c1ccc(N2CCOCC2)c(NS(=O)(=O)c2ccc(C(C)C)cc2)c1	inactive: 2.17%
CCOc1ccc(CCNC(=O)CSCc2ccc(C)cc2)cc1OCC	inactive: 10.2%
Cc1nn2c(-c3cccc(NC(=O)c4ccccc4)c3)nnc2c2ccccc12	inactive: -0.371%
CCN(CC)S(=O)(=O)c1ccc(N2CCN(c3ccccc3OC)CC2)c(N)c1	inactive: -10.7%
Cc1cccc(C)c1NC(=O)CS(=O)CC(=O)N1CCN(c2ccccc2)CC1 (stereo not given)	inactive: -1.23%
COc1ccc(Cl)cc1NC(=O)CC1CCCC1	inactive: 40.1%
CCOc1cc(NC(=O)C2CCCCC2)c(OCC)cc1NC(=O)c1ccccn1	inactive: -0.455%
CS(=O)(=O)N1CCc2cc(C(=O)Nc3ccc(Cl)cc3)ccc21	inactive: -23%
O=C(O)CCn1c(=O)oc2cc(S(=O)(=O)N3CCCC3)ccc21	inactive: 6.09%
CCOC(=O)c1c(C)oc2ccc(N(C(=O)Oc3ccccc3)S(=O)(=O)c3ccc(CC)cc3)cc12	inactive: -9.51%
COC(=O)C1CCN(C(=O)CSc2nc3nc(C)cc(C)n3n2)CC1	inactive: 11.9%
O=C(/C=C/c1ccc(Cl)cc1)N(Cc1ccccc1)C1CCS(=O)(=O)C1 (stereo not given)	inactive: 18.3%
COC(=O)c1sc(N)c(C(=O)OC)c1COC(=O)CNS(=O)(=O)c1cccc(C#N)c1	inactive: 8.64%
CCOc1cccc(-c2cc(NCCc3ccccn3)n3nccc3n2)c1	inactive: 19.6%
CC1CCN(C(=O)Cn2ncc3c4ccccc4n(C)c3c2=O)CC1	inactive: -29.6%

SMILES	growth rescue (activation)
O=C(O)CCc1nnc(SCC(=O)Nc2ccc(Br)cc2)[nH]c1=O	inactive: 4.93%
C=CCOc1ccc(C(c2c(C)n(C)n(-c3ccccc3)c2=O)c2c(C)n(C)n(-c3ccccc3)c2=O)cc1	inactive: 6.21%
Cc1ccc(F)cc1NC(=O)CCNC(=O)c1ccc([N+](=O)[O-])cc1	inactive: 5.77%
COc1cccc(CNCC(O)COc2ccc(C(=O)c3ccccc3)cc2)c1 (stereo not given)	inactive: -9.2%
O=C(NC1CCCCCC1)c1cccnc1Sc1ccc(Cl)cc1	inactive: 4.89%
O=C(CSc1nc2c(cnn2-c2ccccc2)c(=O)[nH]1)NCC1CCCO1 (stereo not given)	inactive: 0.734%
Cc1ccc(CNS(=O)(=O)c2ccc3c(c2)n(C)c(=O)c(=O)n3C)cc1	inactive: 13.2%
CCN(CC)C1CCN(c2nc3nonc3nc2NCCOC)C1 (stereo not given)	inactive: 1.92%
CC1CCCCC1NC(=O)Cn1c(=O)cnc2ccccc21 (stereo not given)	inactive: 5.98%
COc1cc(/C=N/N=C(\N)c2nonc2N)cc(OC)c1O	inactive: 5.95%
Cc1ccc(C)c(Cn2nnc3c(=O)[nH]c(C4CCCN(C(=O)c5ccco5)C4)nc32)c1 (stereo not given)	inactive: 6.3%
CC(=O)c1ccc(NC(=O)CCc2c(C)nc3c(c(C)nn3-c3ccc(C)cc3)c2C)cc1	inactive: 6.73%
CN(C)S(=O)(=O)c1cccc(NC(=O)C2CCN(S(=O)(=O)c3cccs3)CC2)c1	inactive: -1.89%
O=C(Cn1nc(C(=O)O)c2ccccc2c1=O)Nc1ccc(F)cc1F	inactive: 16%
CSc1cccc(NC(=S)N2CCCN(Cc3ccc(F)cc3)C2)c1	inactive: 15.2%
CCCNC(=O)C1(C)CCCN(C(=O)c2cc(F)cc(F)c2)C1 (stereo not given)	inactive: 4.34%
COc1ccc(C2CC3(CC(C)(C)NC(=S)N3)Oc3cc(O)cc(C)c32)cc1OC (stereo not given)	inactive: -4.95%
Cn1c(SCc2ccccc2)nnc1-c1ccco1	inactive: 5.21%
O=C(c1cc([N+](=O)[O-])ccc1N1CCCCC1)N1CCc2ccccc21	inactive: 3.02%
O=S(=O)(NCc1cccc(C(F)(F)F)c1)NCc1ccccc1F	inactive: 10.5%
CCN(CC)CCSc1nnc2c3cc(F)ccc3n(Cc3ccccc3)c2n1	inactive: -12.2%
CC(=O)c1cc(C#N)c(NCCCN(C)C)nc1C	inactive: 1.32%
Cc1ccc(NC(=O)COC(=O)Cn2cnc3c2c(=O)n(C)c(=O)n3C)cc1F	inactive: 17.1%
C/C(CC(=O)Nc1c(C)cc(C)cc1C)=N\NC(=O)Cc1ccccc1	inactive: -13.2%
